Data: the supplement of paper PMC11417369
The other results are listed elsewhere or left out.

tested on: PfHDP1 homeodomain (GST-tagged); assay: gcPBM binding intensity (ln(normalized median fluorescence intensity)); higher = stronger DNA binding
In short: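 Binding intensity values are the highest Masliner-normalised natural-log median intensity among replicate spots of either probe orientation. The binding step lasted 1 h in 1× PBS with 1% milk, 0.2 mg/ml BSA, 0.5% salmon testes DNA and 0.03% Triton X-100, using GST-tagged P. falciparum DNA-binding domains expressed in E. coli on an Agilent 4 × 180k array of primer-extended double-stranded 36-bp intergenic genomic probes plus negative controls. Alexa488 anti-GST antibody and a 488 nm scan detected bound protein.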

Sequence | gcPBM binding intensity (ln)
TATATATATATATGAGTGCATATGTGTAATATAAAA | 9.65
TACAAAATATTTTACACACACATATAAATACCTATA [CACACA_site7272] | 6.97
TATATAATTATTTGATGTACACTACAATGTATTTGT [XGTACX_site7991] | 6.76
TTATGTTCTTAATGCACACTTATAAGTATCTTATAA [CACACA_site1394] | 9.72
AATACAATATAAAGGTGTACATATATATATATATAT [XGTACX_site68] | 9.26
AAAAAAAAAAAAAAAACACACACAACACCCATACCT [CACACA_site9208] | 6.86
ATGTAGATAGATAGGGTGCTAAAAATAAGATTTATA [GTGCAC_site9602] | 6.67
TATAAGCAAAGACACACACACATATAAATATAAATA [CACACA_site7740] | 6.72
TATAAAATATATATCTGTACGTATTTTATTTTTTAT [XGTACX_site6257] | 6.14
ATAATACACAAGCACACACACACACGGATATTTATA [CACACA_site6714] | 7.31
ATAATTATATTTTATTCACACATCGTTATATAGTAA [CACACA_site4743] | 6.51
AATTATTCATAAAATGCATGTACATGGTTTAATATT [TGCATGCA_site87] | 6.65
ATACATGTTTTATGTGCACACAAAGTTGTTATGAGG [CACACA_site4032] | 10.8
TCGTAAACTTTATGCACACACATATACATATTTCAT [CACACA_site739] | 10.1
ACATGATAAATAGTCACACATAAATATAATATATAT [CACACA_site5207] | 6.69
ATTATGGATACATAAACACACATATATATAAAAAAA [CACACA_site4303] | 6.86
TATGTATATTTAAATGCATGTGATTATTTTTGACTT [TGCATGCA_site568] | 6.19
TTATAAATTTAAAAAGTGCATAATAATAACAAAAAG | 8.81
ACTTTTTTTTTTTTTTTAGATTACATAAATATAAAT [CACACA_negctrl_site139] | 6.56
AACACAATAAAAATTAAAAATGTTAAGTAAATATAA [GTGCAC_negctrl_site60] | 6.21
TTATAATTTAATAAATGTACATAAATAATATACATA [XGTACX_site7271] | 6.14
AGACAATATCTTATTTGTACATATGTATTCCTCATA [XGTACX_site5757] | 6.93
TATTTTTATTTTCCTTCACACATTTTTTATATTTTT [CACACA_site5830] | 6.7

Sequence | gcPBM binding intensity (ln)
AAAAAAAAAAAAAAAACACACATATAGATTATTGTA [CACACA_site7797] | 6.61
TTTTAATTTATCGACACACGCATGAATAGAAATTAG [CACACA_site3361] | 6.24
AAGTACAATTCATGTATGCACTTTATTATATTTTAT | 7.33
TATAATATGTATATCTGTACATATTTTAAATCTAAT [XGTACX_site2426] | 5.97
AAGATAAAATAATAAAGTACACATATAAATTGAAAA [XGTACX_site2113] | 6.56
TTTCTTTTTAAATAATAATGTATAATAAAAAGTTCA [TGCATGCA_negctrl_site195] | 6.08
TTTGTTTGATATATGTGTACATATATATATTATGCT [XGTACX_site3522] | 6.76
AGAAAGTAAAGCTGTTGTACTATTATATATATTTTA [XGTACX_site8090] | 6.38
GTAATACCCAAACACACACACATACCCATATATATA [CACACA_site5510] | 7.1
GAGAGGATCATCAATTCACACACATAAAAATGAAGT [CACACA_site9010] | 6.23
AACATATGATTAAACTGTACAAGAAAAATATAACAT [XGTACX_site4477] | 7.46
ATAGTTTTTCCAATTCAAAAAAAAAAAAAAAAAAAA [CACACA_negctrl_site969] | 6.02
TAAAAATATTATAATGCATGCAAAATATTGTTATAA [TGCATGCA_site244] | 6.25
AAAGTATAAATAAATACACACATATTTATTTATATA [CACACA_site7375] | 6.42
TATTATAGTATATATTGTACATATATATATTTTTTA [XGTACX_site8831] | 6.5
ATAATAATATATAGTACACACAAAAATGGAAGTAAA [CACACA_site3318] | 7.18
TATATATAAGATTGATGTACGATTTTGGTGTCTTAT [XGTACX_site2611] | 6.25
TGTTATGAGAACAGCACACAAGCTACATCATATATA [CACACA_site870] | 6.3
GAAATTATAAATTGGACACACACATAAAAAATATGT [CACACA_site7957] | 6.28
TTCCTATTTCCTATGTGTACTTATAAATAAGTGTCT [XGTACX_site3725] | 6.92
TCCGCATGTACATGGGTGCACATAACACCCATTTAA [GTGCAC_site9881] | 8.53
CTTTCTATATAAAATCGTACATATATAATATTATAT [XGTACX_site5807] | 6.62
TAAATGTCTGTTAATGCACACGATATGTCTATATAT [CACACA_site2352] | 9.69

Sequence | gcPBM binding intensity (ln)
TATATTAAGAAACACACACACATATATATATATATA [CACACA_site1609] | 9.36
TATTTTTTAAAAAAATGTCATAAAATTTCTTTTTTC [XGTACX_negctrl_site271] | 5.89
AGAAAAAAATAATGTACACACACATATATGTTTATA [CACACA_site7946] | 6.65
ATATACAAAGGATTAACACACATATTATTATATATA [CACACA_site1880] | 6.4
ATATATATATATATGTGTACTTATATATTTAAAAAA [XGTACX_site1761] | 9.13
TTATACCTGATTTAGGTGCTATAAATTTGTGTTTTT | 6.25
ATATATATATATATATATATTTATATGTGAAAACCC [CACACA_negctrl_site845] | 9.28
GTAATTTTATATGGTTGTACATATATATATATATAT [XGTACX_site6659] | 9.48
CAACAACAAAAAAAAAAATAATAATAATAAAAAATA [TGCATGCA_negctrl_site271] | 6.37
CGCATAAAGACAAGAACACACATATATATTGTAGTA [CACACA_site5938] | 6.32
TTTTTGTTACCTATTGTGCACTTCATATAAATTAAA | 10.9
TATTAAAAGGTTAAAGCATGCATACATATATATGTT [TGCATGCA_site865] | 6.9
AATAATAAATAAAAATGTACACATACATTTCTATCC [XGTACX_site7057] | 6.19
TATAAATTTTTATTTACATGCAGTTATTATTTCCAT [TGCATGCA_site41] | 6.33
ATATATATATATATATGTACATATTTATATTGTAAA [XGTACX_site8878] | 9.35
TAATGTAATACATATTGTACACATACATATATATTT [XGTACX_site7531] | 6.61
GGGTATACCAATATAACACACATATATCTATAATAT [CACACA_site6348] | 6.45
ATATATAATCATCACACATGCAGCCCTGATGAAAAA [TGCATGCA_site687] | 6.64
ATTTTTACATAGGAAGCATGCATATTTTAAAAATAA [TGCATGCA_site1046] | 6.49
CTAACACTAATTTTTTGTACACAATATGTAAATAAA [XGTACX_site6424] | 6.63
CATGTGTTCTATATTTATGTCTAACTTTTTAATTAA [CACACA_negctrl_site904] | 6.44
TTATTTCTGAATATTTTTTTTTTTTCTTCTTTTTTA [CACACA_negctrl_site815] | 5.85
TATATATATATATATTGTACGAACCTTTTTTTTTTT [XGTACX_site4169] | 9.17

Sequence | gcPBM binding intensity (ln)
TGATACGTATTTATTTCACACACGTTAAAAAAATAA [CACACA_site3914] | 6.14
TAATTTTTTAAATTTAAACACACATTTTGTATATGT [CACACA_site8479] | 6.69
TATATATATATTTTTGGTACAGATATTTTCTTCTCT [XGTACX_site4432] | 8.32
TTACAACCATAAAATGCATGTAAATGACAAAAAAAA [TGCATGCA_site944] | 6.35
AATATATATATATATTGTACACACATTTATGCATAT [XGTACX_site6856] | 7.14
TAAATACAGACATACACACATACACCCACATATATA [CACACA_site547] | 6.88
ATTAAAATGGAGTATTAATATGATATATATATATAT [GTGCAC_negctrl_site509] | 8.99
AGGAACATTTACGCCCCACACACCTACCAACAAAAA [CACACA_site3827] | 6.75
TTTGGTAAGCGTGTCGCATGTAGAACAAGTCTACAT [TGCATGCA_site577] | 6.08
AATAGGTGCCTTTTTTCACACACATGTCAACTAAAT [CACACA_site8846] | 6.6
ATGAAATTATTATATAAACACACATTTATTTTATTT [CACACA_site8597] | 6.28
TAAAATTAAATGAAATCATTATTCATTTTTATTTTA [CACACA_negctrl_site1281] | 5.67
ATTCTTTTTTTTTTCTTATATTCTAATCACCACCTT [XGTACX_negctrl_site179] | 6.63
CATATAAATAAACACACACACACATATATATATATA [CACACA_site5309] | 9.27
ACCCTTCAATTTAATTGTACAAGAAAAAAAAAAAAA [XGTACX_site2927] | 6.41
AAATAATCATAAAATAAACACACATATATAAATATA [CACACA_site7981] | 6.51
TGCTCAAACTTTACAAATGAACGAATATAAAAAAAG [CACACA_negctrl_site541] | 6.83
TTACAAAAAGGTAATTTACACACTGCATATAGGAAT [CACACA_site8956] | 7
TCTTAATATGGTAATACACACTAATATACTTTTGTT [CACACA_site4969] | 6.59
GTTAATTTAATTATATGTACGAAAAAATACGTTATA [XGTACX_site1306] | 6.16
